Data on 58 molecules can be found in the supplement of paper PMC12297408.

Each structure is given as a SMILES string. Where a name gives a salt, the structure may show the parent alone. Screen size: about 1,300 compounds; about 40 (3%) showed activity. The list shows a part of the results.

In the test the test system is Plasmodium falciparum NF54/iGP1_RE9H ulg8 stage V gametocytes. The experiment in a line: gametocyte viability (luciferase signal relative to DMSO control) (% of DMSO control); higher = less gametocytocidal activity, active = 50 or less. The conditions noted are these: exposure time: 72 h. Put shortly:
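Compounds from 10 mM DMSO stocks were spotted at nanolitre scale into 96-well plates, and day-12 stage V NF54/iGP1_RE9Hulg8 gametocytes (~2.5% gametocytemia, 3% hematocrit; medium with 0.5% Albumax II) were added to reach 10 µM or 1 µM, one well per concentration. The plates were kept at 37 °C for 72 h. Luminescence was then read on an IVIS Lumina II after mixing 90 µl of culture with 10 µl D-luciferin (30 mg/ml). Viability values are relative to the plate's mean DMSO vehicle signal.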

With `c1ccc2c(c1)CCCC2C1=NCCN1` (stereo unspecified) [Tetrahydrozoline hydrochloride], the gametocyte viability was inactive: 93.3 (concentration: 1 µM) and inactive: 84.7 (concentration: 10 µM).

For `C[C@@H](O)[C@H]1C(=O)N2C(C(=O)O)=C(SCCNC=N)C[C@H]12` [Imipenem], the gametocyte viability reads like this: (concentration: 1 µM) inactive: 88.8; (concentration: 10 µM) inactive: 87.5.

For `CCCCCN(C)CCC(O)(P(=O)(O)O)P(=O)(O)O` [Ibandronate sodium], the gametocyte viability is inactive: 87.2 (concentration: 1 µM) and inactive: 87.1 (concentration: 10 µM).

Consider `C1N2CN3CN1CN(C2)C3` [Methenamine], for which the gametocyte viability (concentration: 1 µM) was inactive: 86.3 and the gametocyte viability (concentration: 10 µM) is inactive: 83.8.

`O=C1NCCN1c1ncc([N+](=O)[O-])s1` [Niridazole]: the gametocyte viability is, setting by setting: (concentration: 1 µM) inactive: 93.4; (concentration: 10 µM) inactive: 96.6.

`CC(=O)OCC(=O)NCCCOc1cccc(CN2CCCCC2)c1` [Roxatidine Acetate HCl]: the gametocyte viability is inactive: 82.7 (concentration: 1 µM) and inactive: 88.1 (concentration: 10 µM).

Turning to `CCn1cc(C(=O)O)c(=O)c2cc(F)c(N3CCNCC3)nc21` [Enoxacin], the gametocyte viability is, setting by setting: (concentration: 1 µM) inactive: 94.5; (concentration: 10 µM) inactive: 91.3.

Turning to `CC(C(=O)O)c1cccc(Oc2ccccc2)c1` (stereo unspecified) [Fenoprofen calcium salt dihydrate], the gametocyte viability is inactive: 91.7 (concentration: 1 µM) and inactive: 91.8 (concentration: 10 µM).

Regarding `Oc1ccc(C2CNCCc3c2cc(O)c(O)c3Cl)cc1` (stereo unspecified) [Fenoldopam], the gametocyte viability is inactive: 96.3 (concentration: 1 µM) and inactive: 93.1 (concentration: 10 µM).

Regarding `CCCc1ncc(C[n+]2ccccc2C)c(N)n1` [Amprolium hydrochloride], the gametocyte viability by setting is: (concentration: 1 µM) inactive: 82.2; (concentration: 10 µM) inactive: 89.3.

`CO[C@H]1/C=C/O[C@@]2(C)Oc3c(C)c(O)c4c(O)c(c(/C=N/N5CCN(C)CC5)c(O)c4c3C2=O)NC(=O)/C(C)=C\C=C\[C@H](C)[C@H](O)[C@@H](C)[C@@H](O)[C@@H](C)[C@H](OC(C)=O)[C@@H]1C` [Rifampicin]: the gametocyte viability by setting is: (concentration: 1 µM) inactive: 87.6; (concentration: 10 µM) inactive: 84.6.

On to `CC=C(C)C(=O)OC1C(OC(C)=O)C2(CO)C(O)CC3(C)C(=CCC4C5(C)CCC(OC6OC(C(=O)O)C(OC7OC(CO)C(O)C(O)C7O)C(O)C6OC6OC(CO)C(O)C(O)C6O)C(C)(CO)C5CCC43C)C2CC1(C)C` (stereo not drawn) [Beta-Escin], for which the gametocyte viability runs as follows: (concentration: 1 µM) inactive: 90.1; (concentration: 10 µM) inactive: 93.2.

Turning to `Cc1c(Cl)cccc1Nc1ccccc1C(=O)O` [Tolfenamic acid], the gametocyte viability was inactive: 83.6 (concentration: 1 µM) and inactive: 90.8 (concentration: 10 µM).

With `CCCSc1ccc2[nH]c(NC(=O)OC)nc2c1` [Albendazole], the gametocyte viability is inactive: 93 (concentration: 1 µM) and inactive: 102 (concentration: 10 µM).

For `Cc1ccc(N(CC2=NCCN2)c2cccc(O)c2)cc1` [Phentolamine hydrochloride], the gametocyte viability (concentration: 1 µM) was inactive: 99 and the gametocyte viability (concentration: 10 µM) is inactive: 98.9.

As for `CCc1ccc(CCOc2ccc(CC3SC(=O)NC3=O)cc2)nc1` (stereo unspecified) [Pioglitazone], the gametocyte viability is inactive: 86 (concentration: 1 µM) and inactive: 88.2 (concentration: 10 µM).

On to `c1ccc(CC2=NCCN2)cc1` [Tolazoline hydrochloride], for which the gametocyte viability runs as follows: (concentration: 1 µM) inactive: 89.1; (concentration: 10 µM) inactive: 86.3.

Regarding `CC(C)(Oc1ccc(CCNC(=O)c2ccc(Cl)cc2)cc1)C(=O)O` [Bezafibrate], the gametocyte viability by setting is: (concentration: 1 µM) inactive: 98.6; (concentration: 10 µM) inactive: 97.

`OCCN1CCN(CCCN2c3ccccc3Sc3ccc(C(F)(F)F)cc32)CC1` [Fluphenazine dihydrochloride]: the gametocyte viability (concentration: 1 µM) was inactive: 89.1 and the gametocyte viability (concentration: 10 µM) was inactive: 68.1.

With `O=C(O)CCc1nc(-c2ccccc2)c(-c2ccccc2)o1` [Oxaprozin], the gametocyte viability reads like this: (concentration: 1 µM) inactive: 87.7; (concentration: 10 µM) inactive: 88.5.

In the case of `O=C1c2ccccc2C(=O)C1c1ccccc1` [Phenindione], the gametocyte viability reads like this: (concentration: 1 µM) inactive: 97.4; (concentration: 10 µM) inactive: 97.6.

Turning to `Clc1ccc2c(c1)C(N1CCNCC1)=Nc1ccccc1O2` [Amoxapine], the gametocyte viability is, setting by setting: (concentration: 1 µM) inactive: 81.3; (concentration: 10 µM) inactive: 83.6.

In the case of `CC[C@H]1OC(=O)[C@H](C)[C@@H](O[C@H]2C[C@@](C)(OC)[C@@H](O)[C@H](C)O2)[C@H](C)[C@@H](O[C@@H]2O[C@H](C)C[C@H](N(C)C)[C@H]2O)[C@](C)(O)C[C@@H](C)C(=O)[C@H](C)[C@@H](O)[C@]1(C)O` [Erythromycin], the gametocyte viability is, setting by setting: (concentration: 1 µM) inactive: 85.4; (concentration: 10 µM) inactive: 87.6.

Take `CCOC(=O)N1CCC(=C2c3ccc(Cl)cc3CCc3cccnc32)CC1` [Loratadine]: the gametocyte viability (concentration: 1 µM) is inactive: 86 and the gametocyte viability (concentration: 10 µM) was inactive: 87.7.

For the molecule `COc1ccc(CC(C)NCC(O)c2ccc(O)c(NC=O)c2)cc1` (stereo unspecified) [Formoterol fumarate], the gametocyte viability is, setting by setting: (concentration: 1 µM) inactive: 84.3; (concentration: 10 µM) inactive: 85.1.

As to `C[C@H](N[C@@H](CCc1ccccc1)C(=O)O)C(=O)N1CCC[C@H]1C(=O)O` [Enalaprilat dihydrate], the gametocyte viability (concentration: 1 µM) is inactive: 82.6 and the gametocyte viability (concentration: 10 µM) is inactive: 87.4.

For the molecule `COC(=O)[C@H](c1ccccc1Cl)N1CCc2sccc2C1` [Clopidogrel], the gametocyte viability was inactive: 86.2 (concentration: 1 µM) and inactive: 93.7 (concentration: 10 µM).

On to `C[C@]12CCC(=O)C=C1CC[C@@H]1[C@@H]2C(=O)C[C@@]2(C)[C@H]1CC[C@]2(O)C(=O)CO` [Cortisone], for which the gametocyte viability runs as follows: (concentration: 1 µM) inactive: 92.6; (concentration: 10 µM) inactive: 93.8.

On to `COCCCC/C(=N\OCCN)c1ccc(C(F)(F)F)cc1` [Fluvoxamine maleate], for which the gametocyte viability is, setting by setting: (concentration: 1 µM) inactive: 93.3; (concentration: 10 µM) inactive: 91.7.

Turning to `CC(=O)[C@@]12O[C@](C)(c3ccccc3)O[C@@H]1C[C@H]1[C@@H]3CCC4=CC(=O)CC[C@]4(C)[C@H]3CC[C@@]12C` [Algestone acetophenide], the gametocyte viability runs as follows: (concentration: 1 µM) inactive: 93; (concentration: 10 µM) inactive: 103.

For `C[C@@H](O[C@H]1OCCN(Cc2n[nH]c(=O)[nH]2)[C@H]1c1ccc(F)cc1)c1cc(C(F)(F)F)cc(C(F)(F)F)c1` [Aprepitant], the gametocyte viability reads like this: (concentration: 1 µM) inactive: 87.7; (concentration: 10 µM) inactive: 75.4.

For the molecule `CN1CCCN=C1/C=C/c1cccc(O)c1` [Oxantel pamoate], the gametocyte viability is inactive: 80.4 (concentration: 1 µM) and inactive: 87.7 (concentration: 10 µM).

For the molecule `CC(N)CCCC(C)(C)O` (stereo unspecified) [Heptaminol hydrochloride], the gametocyte viability (concentration: 1 µM) is inactive: 82.3 and the gametocyte viability (concentration: 10 µM) was inactive: 84.6.

Consider `CC(C)OC(=O)C(C)(C)Oc1ccc(C(=O)c2ccc(Cl)cc2)cc1` [Fenofibrate], for which the gametocyte viability was inactive: 99.4 (concentration: 1 µM) and inactive: 98.6 (concentration: 10 µM).

Turning to `Cc1c(O)c(=O)n(-c2ccccc2)n1C` [Antipyrine, 4-hydroxy], the gametocyte viability was inactive: 86 (concentration: 1 µM) and inactive: 86.8 (concentration: 10 µM).

`CC=CC1=C(C(=O)O)N2C(=O)[C@@H](NC(=O)[C@H](N)c3ccc(O)cc3)[C@H]2SC1` [Cefprozil]: the gametocyte viability by setting is: (concentration: 1 µM) inactive: 83.2; (concentration: 10 µM) inactive: 80.7.

In the case of `Cc1cc2c(s1)Nc1ccccc1N=C2N1CCN(C)CC1` [Olanzapine], the gametocyte viability is, setting by setting: (concentration: 1 µM) inactive: 97; (concentration: 10 µM) inactive: 90.5.

For `CCCCc1ccc2[nH]c(NC(=O)OC)nc2c1` [Parbendazole], the gametocyte viability is inactive: 95.1 (concentration: 1 µM) and inactive: 97 (concentration: 10 µM).

Take `Nc1ncnc2c1ncn2C1OC(COP(=O)(O)O)C(O)C1O` (stereo unspecified) [Adenosine 5'-monophosphate monohydrate]: the gametocyte viability (concentration: 1 µM) was inactive: 81.1 and the gametocyte viability (concentration: 10 µM) is inactive: 83.8.

For the molecule `CCOc1ccc2nc(S(N)(=O)=O)sc2c1` [Ethoxzolamide], the gametocyte viability by setting is: (concentration: 1 µM) inactive: 88.1; (concentration: 10 µM) inactive: 91.9.

`CN1CCCN(C(c2ccccc2)c2ccc(Cl)cc2)CC1` (stereo unspecified) [Homochlorcyclizine dihydrochloride]: the gametocyte viability (concentration: 1 µM) is inactive: 84.6 and the gametocyte viability (concentration: 10 µM) is inactive: 68.1.

As for `C[C@@H]1C[C@H]2[C@@H]3CCC4=CC(=O)C=C[C@]4(C)[C@@]3(Cl)[C@@H](O)C[C@]2(C)[C@@]1(OC(=O)c1ccco1)C(=O)CCl` [Mometasone furoate], the gametocyte viability was inactive: 88.8 (concentration: 1 µM) and inactive: 96 (concentration: 10 µM).

Turning to `C=C1c2cccc(O)c2C(O)=C2C(=O)[C@]3(O)C(O)=C(C(N)=O)C(=O)[C@@H](N(C)C)[C@@H]3[C@@H](O)[C@H]12` [Methacycline hydrochloride], the gametocyte viability was inactive: 89.8 (concentration: 1 µM) and inactive: 89.5 (concentration: 10 µM).

As to `O=C(O)c1cc(/N=N/c2ccc(S(=O)(=O)Nc3ccccn3)cc2)ccc1O` [Sulfasalazine], the gametocyte viability (concentration: 1 µM) is inactive: 103 and the gametocyte viability (concentration: 10 µM) was inactive: 96.4.

For `C/C(=C\C(=O)OCCCCCCCCC(=O)O)C[C@@H]1OC[C@H](C[C@@H]2O[C@H]2[C@@H](C)[C@H](C)O)[C@@H](O)[C@H]1O` [Mupirocin], the gametocyte viability was inactive: 102 (concentration: 1 µM) and inactive: 95.8 (concentration: 10 µM).

With `CCc1cccc(CC)c1NC(=O)CN(CC(=O)O)CC(=O)O` [Etifenin], the gametocyte viability reads like this: (concentration: 1 µM) inactive: 94.6; (concentration: 10 µM) inactive: 95.

For `CN/C(=N\CCSCc1nc[nH]c1C)NC#N` [Cimetidine], the gametocyte viability is, setting by setting: (concentration: 1 µM) inactive: 100; (concentration: 10 µM) inactive: 94.5.

For the molecule `COc1ccc2cc([C@H](C)C(=O)O)ccc2c1` [Naproxen], the gametocyte viability is inactive: 93 (concentration: 1 µM) and inactive: 94.9 (concentration: 10 µM).

On to `C/C=C(/C(=C/C)c1ccc(O)cc1)c1ccc(O)cc1` [Dienestrol], for which the gametocyte viability is, setting by setting: (concentration: 1 µM) inactive: 91.2; (concentration: 10 µM) inactive: 96.9.

On to `Cc1ncc([N+](=O)[O-])n1CC(C)O` (stereo unspecified) [Secnidazole], for which the gametocyte viability reads like this: (concentration: 1 µM) inactive: 96.2; (concentration: 10 µM) inactive: 98.6.

`O=C(O)c1ccccc1OP(=O)(O)O` [Fosfosal]: the gametocyte viability runs as follows: (concentration: 1 µM) inactive: 90; (concentration: 10 µM) inactive: 81.4.

For the molecule `CC1(C)S[C@@H]2[C@H](NC(=O)[C@H](N)c3ccccc3)C(=O)N2[C@H]1C(=O)O` [Ampicillin trihydrate], the gametocyte viability was inactive: 82 (concentration: 1 µM) and inactive: 82.2 (concentration: 10 µM).

On to `O=c1n(CCCN2CCN(c3cccc(Cl)c3)CC2)nc2ccccn12` [Trazodone hydrochloride], for which the gametocyte viability by setting is: (concentration: 1 µM) inactive: 90.8; (concentration: 10 µM) inactive: 86.5.

In the case of `Cc1nc2ccccn2c(=O)c1CCN1CCC(C(=O)c2ccc(F)cc2)CC1` [Pirenperone], the gametocyte viability was inactive: 85.1 (concentration: 1 µM) and inactive: 88.8 (concentration: 10 µM).

Turning to `CSc1nc2cc(Cl)c(Oc3cccc(Cl)c3Cl)cc2[nH]1` [Triclabendazole], the gametocyte viability was inactive: 85.7 (concentration: 1 µM) and inactive: 92 (concentration: 10 µM).

Regarding `O=C(CCNNC(=O)c1ccncc1)NCc1ccccc1` [Nialamide], the gametocyte viability by setting is: (concentration: 1 µM) inactive: 87.4; (concentration: 10 µM) inactive: 84.5.

Consider `N/C(=N\C(=O)c1nc(Cl)c(N)nc1N)NCc1ccccc1` [Benzamil hydrochloride], for which the gametocyte viability was inactive: 88.7 (concentration: 1 µM) and inactive: 81.1 (concentration: 10 µM).

Regarding `NC(=O)c1cnccn1` [Pyrazinamide], the gametocyte viability was inactive: 89.4 (concentration: 1 µM) and inactive: 83.6 (concentration: 10 µM).
